The koff is a measure of how fast the partners let go of each other.

Here are results for one molecule from publication PMC13534789 (2026).

Experiment [1] concerns the target T1, 10xHis-CAPRIN1 (recombinant human CAPRIN1, full length) (human, UniProt Q14444 1-709).
T1 chain: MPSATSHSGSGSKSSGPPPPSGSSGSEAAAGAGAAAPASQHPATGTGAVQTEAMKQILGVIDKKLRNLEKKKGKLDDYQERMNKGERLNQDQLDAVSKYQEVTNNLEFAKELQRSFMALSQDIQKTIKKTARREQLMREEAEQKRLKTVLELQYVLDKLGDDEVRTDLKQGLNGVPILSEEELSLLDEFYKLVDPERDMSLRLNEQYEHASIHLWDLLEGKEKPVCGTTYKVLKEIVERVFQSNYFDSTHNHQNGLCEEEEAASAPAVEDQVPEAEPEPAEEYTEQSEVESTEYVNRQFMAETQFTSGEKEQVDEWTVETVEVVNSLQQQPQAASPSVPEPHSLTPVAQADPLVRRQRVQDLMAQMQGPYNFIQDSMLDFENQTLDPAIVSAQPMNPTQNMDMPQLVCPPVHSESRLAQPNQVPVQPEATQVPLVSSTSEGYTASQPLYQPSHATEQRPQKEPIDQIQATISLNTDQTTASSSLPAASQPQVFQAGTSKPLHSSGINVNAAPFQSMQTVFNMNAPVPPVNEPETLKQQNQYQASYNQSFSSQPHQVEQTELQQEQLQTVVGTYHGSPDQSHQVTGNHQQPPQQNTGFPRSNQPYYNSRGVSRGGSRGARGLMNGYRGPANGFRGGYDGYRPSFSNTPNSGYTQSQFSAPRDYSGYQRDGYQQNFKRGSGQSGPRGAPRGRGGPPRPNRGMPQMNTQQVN
Description: SPR; sarkosyl-solubilized APP, without 0152. (SPR reads the build-up and loss of mass on a sensor chip optically.)

The target in experiment [2] is T1, 10xHis-CAPRIN1 (recombinant human …). Put plainly: SPR; sarkosyl-solubilized APP, without 0152.
For experiment [3] the target is unchanged. Description: SPR; sarkosyl-solubilized APP, with compound 0152 (0.1 uM).
For experiment [4] the target is unchanged. Described as above.

B1: 10xHis-MBP-APP695 (full-length) (natural protein)
chain: LEVPTDGNAGLLAEPQIAMFCGRLNMHMNV[in this place about 40 residues]ANQPVTIQNWCKRGRKQCKTHPHFVIPYRCLVGEFVSDALLVPDKCKFLHQERMDVCETHLHWHTVAKETCSEKSTNLHDYGMLLPCGIDKFRGVEFVCCPLAEESDNVDSADAEEDDSDVWWGGADTDYADGSEDKVVEVAEEEEVAEVEEEEADDDEDDEDGDEVEEEAEEPYEEATERTTSIATTTTTTTESVEEVVRVPTTAASTPDAVDKYLETPGDENEHAHFQKAKERLEAKHRERMSQVMREWEEAERQAKNLPKADKKAVIQHFQEKVESLEQEAANERQQLVETHMARVEAMLNDRRRLALENYITALQAVPPRPRHVFNMLKKYVRAEQKDRQHTLKHFEHVRMVDPKKAAQIRSQVMTHLRVIYERMNQSLSLLYNVPAVAEEIQDEVDELLQKEQNYSDDVLANMISEPRISYGNDALMPSLTETKTTVELLPVNGEFSLDDLQPWHSFGADSVPANTENEVEPVDARPAADRGLTTRPGSGLTNIKTEEISEVKM[in this place about 100 residues]
For the molecule B1, the results for the Kd in experiment [1] and in experiment [4] were 18 µM and 0.49 µM, respectively. Also, the koff turned out to be 0.109 s⁻¹ in experiment [2] and 0.0103 s⁻¹ in experiment [3].
